{"source": "PubChem BioAssay AID902", "about": "(National Center for Advancing Translational Sciences (NCATS), 2007)", "note": "Among all 130,000 compounds or so, about 1,900 (1.5%) were called active. The shares of active, inactive and inconclusive entries below differ from those in the screen. Calls follow the shape of the dose curve; as a rule, active = well fitted cell-killing curve with a large enough effect; inconclusive = small, poorly fitted or top-dose-only effect; inactive = no such curve, though single readings can be large or run the other way. A potency beside an inconclusive call is a rough fit, not a confirmed value."}
{"test": "qHTS Screen for Compounds that Selectively Target Cancer Cells with p53 Mutations: Cytotoxicity of p53ts Cells at the Nonpermissive Temperature; also: nearly all actives have a fitted effect of over 55% in size; also: potency is read from the fitted curve at half-maximal effect; tags tell the direction and shape of the fitted curve; as to activity change, negative = cell killing: % is scaled to controls: 0 for no effect and ±100 for the full control effect", "settings": "H1299-p53A138V viability at 39C, ATP luminescence, 24 h; activity change, negative = cell killing: at 46.1 µM (top of the series)"}
{"compound": "Clc1ccccc1CNCC1CCC(CNCc2ccccc2Cl)CC1", "note": "(configuration not stated)", "Potency": "inconclusive: 25.1 µM [cytotoxic, partial curve]"}
{"compound": "CCn1cc(C(=O)NCc2ccco2)c(=O)c2cc(S(=O)(=O)N3CC(C)CC(C)C3)ccc21", "note": "(configuration not stated)", "Potency": "inconclusive: 2.51 µM [cytotoxic, full curve]"}
{"compound": "O=C1C(c2ccc(F)cc2)N(CCc2ccc(Cl)cc2)C(=O)CN1C1CCCCC1", "note": "(configuration not stated)", "Potency": "inconclusive: 12.6 µM [cytotoxic, partial curve, poor fit]"}
{"compound": "CCc1ccc(S(=O)(=O)Nc2cccc(-c3ccc(N4CCCCC4)nn3)c2)s1", "Potency": "active: 15.8 µM"}
{"compound": "CCN1CCN(c2csc3ccc(Br)cc3c2=O)CC1", "Potency": "inconclusive: 0.0398 µM [cytotoxic, full curve, poor fit]"}
{"compound": "c1ccc(CCNc2ncnc3c2cnn3-c2ccccc2)cc1", "activity change, negative = cell killing": "inactive: 8.59%"}
{"compound": "COc1ccc(NC(=O)CN2CC(c3ccccc3)CC2=O)cc1OC", "note": "(configuration not stated)", "activity change, negative = cell killing": "inactive: -2.65%"}
{"compound": "Cc1cccc(Cn2c(-c3ccccc3)nc3ccccc32)c1", "Potency": "inconclusive: 20 µM [cytotoxic, partial curve]"}
{"compound": "c1ccc(CNc2ccc3ccccc3n2)nc1", "Potency": "inconclusive: 25.1 µM [cytotoxic, single point]"}
{"compound": "COc1cc(OC)cc(-c2nc3nc(C)c(CCC(=O)Nc4cc(C)cc(C)c4)c(C)n3n2)c1", "activity change, negative = cell killing": "inactive: -12.6%"}
{"compound": "O=C(Cn1cnc2ccccc2c1=O)Nc1ccc2c(c1)OCCO2", "Potency": "inconclusive: 25.1 µM [cytotoxic, partial curve]"}
{"compound": "CCCCN(C)CC(O)Cn1cc(/C=C/C(=O)c2ccc(Br)cc2)c2ccccc21", "note": "(configuration not stated)", "Potency": "inconclusive: 15.8 µM [cytotoxic, single point]"}
{"compound": "O=C(Nc1nnc(-c2ccccc2Cl)o1)c1ccc(S(=O)(=O)N2CCCCCC2)cc1", "Potency": "inconclusive: 2 µM [cytotoxic, full curve]"}
{"compound": "CSc1cccc(NC(=O)c2ccc3c(c2)CCCN3S(C)(=O)=O)c1", "Potency": "inconclusive: 31.6 µM [cytotoxic, single point]"}
{"compound": "CCCCCCn1c(/C=C/c2ccccc2)nc2ccccc21", "Potency": "inconclusive: 25.1 µM [cytotoxic, single point]"}
{"compound": "Cc1ccc(-n2ncc3c(NCc4ccccc4)ncnc32)cc1C", "Potency": "inconclusive: 0.01 µM [cytotoxic, full curve, poor fit]"}
{"compound": "COc1cc(OC)c(NC(=O)CSc2nc3ccncc3[nH]2)cc1Cl", "activity change, negative = cell killing": "inactive: 1.47%"}
{"compound": "CSc1oc(-c2ccc(F)cc2)nc1S(=O)(=O)c1ccc(Br)cc1", "Potency": "inconclusive: 0.01 µM [cytotoxic, full curve, poor fit]"}
{"compound": "O=C(CC1Nc2ccccc2NC1=O)c1ccccc1", "note": "(configuration not stated)", "Potency": "inconclusive: 10 µM [cytotoxic, partial curve]"}
{"compound": "COc1cccc(N2CCN(C(=O)Cn3ncc4c3-c3ccccc3OC4)CC2)c1", "Potency": "inconclusive: 31.6 µM [cytotoxic, single point]"}
{"compound": "Cc1ccc(C(=O)c2cn(CC(=O)Nc3ccc4c(c3)OCCO4)c3nc(C)ccc3c2=O)cc1", "activity change, negative = cell killing": "inactive: -5.9%"}
{"compound": "CCOC(=O)C1=C(CNCc2ccc(Cl)cc2)NC(=O)NC1c1ccccc1", "note": "(configuration not stated)", "Potency": "inconclusive: 3.98 µM [cytotoxic, single point]"}
{"compound": "Fc1cccc2sc(Nc3nnc(-c4ccccc4)o3)nc12", "Potency": "active: 10 µM"}
{"compound": "N#C/C(=C\\c1ccc(O)c(O)c1)C(=O)NCCc1ccccc1", "Potency": "inconclusive: 10 µM [cytotoxic, partial curve]"}
{"compound": "Cc1ccc(C2C(=O)N(C3CCCCCC3)CC(=O)N2CCC2=CCCCC2)cc1", "note": "(configuration not stated)", "Potency": "inconclusive: 20 µM [cytotoxic, partial curve, poor fit]"}
{"compound": "CC(=O)c1ccc(N2CCN(S(=O)(=O)c3ccc(-c4cnc(C5CC5)o4)cc3)CC2)cc1", "activity change, negative = cell killing": "inconclusive: -31.9% [cytotoxic]"}
{"compound": "Cc1ccc(C)n1-c1sc2c(c1C#N)CCCC2", "Potency": "inconclusive: 5.62 µM [cytotoxic, single point]"}
{"compound": "COc1cc(/C=c2\\sc3nc(-c4ccncc4)nn3c2=O)ccc1OC(C)=O", "activity change, negative = cell killing": "inactive: -1.93%"}
{"compound": "CCc1ccc2occ(CC(=O)NCc3ccccc3)c2c1", "Potency": "inconclusive: 31.6 µM [cytotoxic, single point]"}
{"compound": "O=C(Nc1scc(-c2ccc(F)cc2)c1C(=O)O)c1ccco1", "Potency": "inconclusive: 15.8 µM [cytotoxic, partial curve]"}
{"compound": "CCOc1ccc(C(=O)Nc2ccc(Cl)c(-c3nc4cc(C)cc(C)c4o3)c2)cc1", "Potency": "inconclusive: 12.6 µM [cytotoxic, single point]"}
{"compound": "CC[C@H](C)[C@@H]1O[C@]2(CC[C@@H]1C)C[C@H]1C[C@H](CC=C(C)[C@@H](O[C@@H]3C[C@H](OC)[C@H](O[C@@H]4C[C@H](OC)[C@H](O)[C@H](C)O4)[C@H](C)O3)[C@@H](C)C=CC=C3CO[C@@H]4[C@@H](O)C(C)=C[C@@H](C(=O)O1)[C@]34O)O2", "Potency": "active: 12.6 µM"}
{"compound": "COc1ccc(NC(=O)Cc2ccc(NC(=O)N3CCCCc4ccccc43)cc2)c(OC)c1", "Potency": "inconclusive: 7.94 µM [cytotoxic, partial curve]"}
{"compound": "CC(C)c1ccc(NC(=O)c2cc(S(=O)(=O)NCCC3=CCCCC3)ccc2F)cc1", "Potency": "inconclusive: 5.01 µM [cytotoxic, partial curve]"}
{"compound": "CCc1ccccc1NC(=S)/N=C(\\N)Nc1nc(C)c2cc(C)ccc2n1", "Potency": "inconclusive: 17.8 µM [cytotoxic, single point]"}
{"compound": "CCc1ccc(NC(=O)C2CCCN2S(=O)(=O)c2cccc3nsnc23)cc1", "note": "(configuration not stated)", "Potency": "inconclusive: 3.98 µM [cytotoxic, full curve, poor fit]"}
{"compound": "O=C(COc1ccc(Cl)cc1)Nc1ccc(Cl)cn1", "activity change, negative = cell killing": "inactive: -4.6%"}
{"compound": "CCc1ccccc1N1CC(c2nc3ccccc3n2CCC2CCCCC2)CC1=O", "note": "(configuration not stated)", "Potency": "inconclusive: 31.6 µM [cytotoxic, single point]"}
{"compound": "Cc1nnc(N2CCC(C(=O)NCc3cccc(Cl)c3)CC2)c2nn(-c3ccccc3)c(C)c12", "Potency": "inconclusive: 31.6 µM [cytotoxic, partial curve]"}
{"compound": "c1ccc(-c2noc(-c3ccc4ccccc4c3)n2)cc1", "Potency": "inconclusive: 7.94 µM [cytotoxic, partial curve]"}
{"compound": "Nc1c(C(=O)NCc2ccco2)nnn1-c1ccccc1", "Potency": "inconclusive: 15.8 µM [cytotoxic, single point]"}
{"compound": "Cc1ccc(-n2nc(C)c(C(=O)NCCCN3CCN(c4ccccc4F)CC3)c2-n2cccc2)cc1", "Potency": "active: 12.6 µM"}
{"compound": "Cc1oc(-c2ccc(Cl)cc2)nc1CN1CCCC(C(=O)NCc2ccc(Cl)cc2)C1", "note": "(configuration not stated)", "Potency": "inconclusive: 1.58 µM [cytotoxic, partial curve]"}
{"compound": "CCOC(=O)c1ccc(N2C(=O)C3CC=C(C)CC3C2=O)cc1", "note": "(configuration not stated)", "activity change, negative = cell killing": "inactive: -5%"}
{"compound": "Cc1cccc(C)c1OCc1cc(=O)n2ccsc2n1", "activity change, negative = cell killing": "inactive: -8.43%"}
{"compound": "COc1cccc(NC(=O)CSc2nnc(NC(=O)NC3CCCCC3)s2)c1", "Potency": "active: 12.6 µM"}
{"compound": "CN(C)c1ccc(-c2nc3ccccn3c2Nc2ccc3c(c2)OCCO3)cc1", "Potency": "inconclusive: 12.6 µM [cytotoxic, single point]"}
{"compound": "COc1ccc(NC(=O)c2oc3ccc4c(c3c2C)C(=O)CC(C)(C)O4)cc1OC", "Potency": "active: 3.98 µM"}
{"compound": "O=C(c1cc2ccccc2o1)c1nc2c(n1O)CCCCC2", "Potency": "inconclusive: 25.1 µM [cytotoxic, single point]"}
{"compound": "COc1ccccc1NC(=O)Cn1c(SCC(=O)NCc2ccccc2)nc2ccccc21", "activity change, negative = cell killing": "inconclusive: -30.5% [cytotoxic]"}
{"compound": "CC(=O)Nc1ccc(-c2nnc3n(CC(C)C)c(=O)c4ccccc4n23)cc1", "Potency": "inconclusive: 12.6 µM [cytotoxic, partial curve]"}
{"compound": "Cc1cc(N2CCN(C)CC2)nc2ccc(NC(=O)Nc3ccccc3Cl)cc12", "Potency": "active: 12.6 µM"}
{"compound": "CCNc1c(NC(=O)c2ccccc2OCC)c(=O)oc2ccccc12", "activity change, negative = cell killing": "inactive: -19.7%"}
{"compound": "N#Cc1nc(-c2ccc(F)cc2)oc1NCc1cccc2c1OCO2", "activity change, negative = cell killing": "inactive: -4.44%"}
{"compound": "Cc1ccc(NC(=O)c2ccc3c(=O)n4nc(Nc5ccccc5C)sc4nc3c2)cc1C", "activity change, negative = cell killing": "inactive: 38.4%"}
{"compound": "O=C(Nc1ccc(F)cc1)c1cccc(N2CCCS2(=O)=O)c1", "activity change, negative = cell killing": "inconclusive: -38.4% [cytotoxic]"}
{"compound": "COc1ccc(-c2[nH]c(-c3ccccc3)nc2SCC(=O)Nc2ccc3c(c2)OCO3)cc1", "Potency": "inconclusive: 20 µM [cytotoxic, single point]"}
{"compound": "O=c1cc(-c2ccccc2)oc2cc(O)c(O)c(O)c12", "Potency": "active: 0.631 µM"}
{"compound": "O=C(NCCc1ccc(Cl)cc1)c1ccc2c(c1)N(Cc1ccc(F)cc1Cl)C(=O)CS2", "Potency": "inconclusive: 7.94 µM [cytotoxic, partial curve]"}
{"compound": "CCOC(=O)C(C)NC(=O)c1cc2c(=O)[nH]c3ccc(C)cc3c2s1", "note": "(configuration not stated)", "Potency": "inconclusive: 12.6 µM [cytotoxic, partial curve]"}
{"compound": "COc1cc(C2Nc3ccccc3-c3nnc(SCc4ccc(Cl)cc4)nc3O2)ccc1OCC(=O)O", "note": "(configuration not stated)", "Potency": "inconclusive: 12.6 µM [cytotoxic, single point]"}
{"compound": "CC(=O)c1cccc(Nc2cc(C)nc3nc(-c4ccccc4C)nn23)c1", "Potency": "inconclusive: 15.8 µM [cytotoxic, partial curve]"}
{"compound": "Cc1cc2oc(C(=O)N(Cc3ccc(N(C)C)cc3)CC3CCCO3)c(C)c2cc1C", "note": "(configuration not stated)", "activity change, negative = cell killing": "inconclusive: -32.1% [cytotoxic]"}
{"compound": "c1ccc(-c2noc(-c3ccncc3)n2)nc1", "Potency": "inconclusive: 15.8 µM [cytotoxic, partial curve]"}
{"compound": "O=c1c(O)c(-c2ccc3c(c2)OCO3)oc2ccccc12", "Potency": "inconclusive: 15.8 µM [cytotoxic, single point]"}
{"compound": "O=C(NCc1ccccc1F)c1cccc(NC(=O)N2CCSc3ncccc32)c1", "activity change, negative = cell killing": "inactive: 25.9%"}
{"compound": "COc1cc(NC(=O)c2csc3c2CCCC3)ncn1", "Potency": "inconclusive: 31.6 µM [cytotoxic, single point]"}
